Screen size: about 45,000 compounds; about 65 (0.1%) were called active. Calls follow the shape of the dose curve; as a rule, active = well fitted activation curve with a large enough effect; inconclusive = small, poorly fitted or top-dose-only effect; inactive = no such curve, though single readings can be large or run the other way. The list shows a part of the results.
The compounds below were run against Galactocerebrosidase (Homo sapiens) (UniProt P54803) (assay: A Novel Cell-Based Assay to Identify Small Molecules for B -Galactocerebrosidase). Conditions: 145M-Twi-hGALC-G270D cells, HMU-beta-Gal fluorescence, 48 h; series mostly up to 57.5 µM; activation: at the top concentration.
Method in brief: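 qHTS, 1536-well; 145M-Twi-hGALC-G270D cells (WT line also made) in DMEM/F12 + 10% FBS; compound incubation on live cells; HMU-β-gal 0.1 mM final, pH 5.2, NaTC; carbonate stop; fluorescence increase = enhanced residual activity.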
Also: 0% is about no effect; nearly all actives have a fitted effect of over 65% in size.

Sequence of UniProt P54803 (P54803 whole entry, looked up): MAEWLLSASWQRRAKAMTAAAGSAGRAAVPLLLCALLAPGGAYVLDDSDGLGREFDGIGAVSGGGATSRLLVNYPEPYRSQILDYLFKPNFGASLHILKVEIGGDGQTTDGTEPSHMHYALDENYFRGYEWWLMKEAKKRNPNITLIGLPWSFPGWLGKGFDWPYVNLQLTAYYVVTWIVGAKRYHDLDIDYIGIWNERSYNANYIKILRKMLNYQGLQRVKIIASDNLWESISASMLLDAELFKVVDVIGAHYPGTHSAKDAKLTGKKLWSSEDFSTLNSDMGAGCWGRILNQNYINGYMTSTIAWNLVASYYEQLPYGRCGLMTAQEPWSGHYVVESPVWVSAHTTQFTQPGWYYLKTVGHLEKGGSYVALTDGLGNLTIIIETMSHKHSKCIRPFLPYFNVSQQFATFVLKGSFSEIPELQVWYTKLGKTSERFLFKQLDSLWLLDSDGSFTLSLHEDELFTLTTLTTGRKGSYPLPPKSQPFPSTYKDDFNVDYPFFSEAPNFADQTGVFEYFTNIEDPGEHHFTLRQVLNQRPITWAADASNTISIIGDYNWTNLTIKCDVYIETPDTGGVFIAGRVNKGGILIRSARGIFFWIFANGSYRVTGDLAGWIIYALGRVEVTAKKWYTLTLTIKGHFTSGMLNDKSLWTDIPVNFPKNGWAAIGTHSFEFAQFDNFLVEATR

activation, inactive:
Cc1ccc(C(=O)Nc2cc3cc(Cl)ccc3oc2=O)cc1 -16.1%, Fc1ccc(C(c2nnc(-c3ccccc3)o2)N2CCN(c3ccccc3)CC2)c(Cl)c1 (stereo not given) 4.73%, CC(C)C(=O)Nc1c(C(=O)N2CCN(c3ccccc3F)CC2)oc2ccccc12 -19.9%, Cc1ccc(-c2nc3sc(CCNC(=O)c4ccco4)c(C)n3n2)cc1 -27.1%, COc1ccccc1NCc1nnc2n1CCCCC2 -11.3%, COc1ccccc1CNC(=O)CCCN1C(=O)CCn2nc(-c3cn(C)c4ccccc34)cc21 -3.25%, Cc1ccc2c(c1)N(CC(=O)NCCCN1CCCCC1)C(=O)c1cccnc1O2 -8.82%, CCOc1ccc(N2CC(NC(=O)c3cc4ccccc4o3)CC2=O)cc1 (stereo not given) -15.9%, COc1cccc(NC(=O)CSc2c(C)cnc3c2c(=O)n(C)c(=O)n3C)c1 -11%, CCCOC(=O)c1c(NC(=O)c2cc3nc(-c4ccc(OC)cc4)cc(C(F)(F)F)n3n2)sc2c1CCCC2 22.6%, COc1cc(Cl)c(C)cc1NC(=O)c1nn(-c2ccc(C)cc2)c(=O)n(C)c1=O -10.4%, CCOc1ccc(S(=O)(=O)N(C(C)=O)c2ccc3oc(C)c(C(=O)OC)c3c2)cc1 -35%, Cc1ccc(CSc2nc3ccncc3n2Cc2nc(-c3ccc(Cl)cc3)oc2C)cc1 -7.67%, COc1ccccc1N1CCN(C(=O)c2cnn(C(C)(C)C)c2C2CCN(C(=O)OC(C)(C)C)CC2)CC1 -25.7%, CCOC(=O)c1ccc(NC(=O)C(=O)NCCc2ccc(OC)cc2)cc1 -9.82%, Cc1ccc(C)c(NC(=O)Cn2c(-c3nonc3N)nc3ccccc32)c1 3.89%, COc1ccc2oc(=O)c(C(=O)N3CCN(c4cc(Cl)ccc4Cl)CC3)cc2c1 -2.12%, Cc1ccc2nc(Cl)c3cc(C(=O)NC4CCCCC4)sc3c2c1 -10.3%, COc1ccc(OC)c(NC(=O)C(NS(=O)(=O)c2ccc3c(c2)CCCC(=O)N3)C(C)C)c1 (stereo not given) -20.7%, Cc1oc(-c2ccccc2Cl)nc1CS(=O)(=O)CC(=O)NC(C)CCc1ccccc1 (stereo not given) -36%, COc1ccc(C(=O)Nc2nc3nc(C)c(Cl)c(=O)n3[nH]2)cc1 -15.4%, CCOc1ccc(NC(=O)Cn2c(=O)c(CNc3ccc(OC)cc3)cc3ccc(OC)cc32)cc1 -4.06%, Cc1ccc(-c2cnc(NCc3c(F)cccc3Cl)n2C)cc1 -9.45%, CCOC(=O)c1cc(S(=O)(=O)N2CCN(c3cc(Cl)ccc3C)CC2)[nH]n1 -2.2%, CCOC(=O)c1ccc(NC(=O)c2nsc3ccccc23)cc1 -25.3%, NS(=O)(=O)c1ccc(Cl)c(S(N)(=O)=O)c1 -7.2%, CN1CCc2nc3sc(C(=O)Nc4c(F)cccc4F)c(N)c3cc2C1 -19.9%, Cc1ccccc1NC(=O)CCc1c(C)nc2c(c1C)c(=O)n(C)c(=O)n2C -4.94%, CCCN(C(=O)Cn1cnc2sc(C)c(S(=O)(=O)N3CCN(c4ncccn4)CC3)c2c1=O)c1cccc(C)c1 14.4%, CCc1ccc(OCC(=O)Nc2c(C(=O)c3ccccc3)oc3ccccc23)cc1 -5.4%, Cc1cc(=O)n2nc(N3CCC(C(=O)NCc4ccccc4Cl)CC3)sc2n1 -4.66%, Cc1nc(-c2cccc(S(=O)(=O)N3CCC(C(=O)NCc4ccccc4)CC3)c2)no1 -5.92%, Cc1cccc(CN2C(=O)c3ccccc3S(=O)(=O)c3ccc(C(=O)N4CCCC4)cc32)c1 -12.9%, COc1ccc(OC)c(S(=O)(=O)Nc2ccc3[nH]c(=O)[nH]c3c2)c1 -10.7%, COc1cccc(NC(=O)c2nnn(Cc3cccc(C(F)(F)F)c3)c2N)c1 -18.7%, COc1ccc(NS(=O)(=O)c2ccc3c(c2)oc(=O)n3C)cc1Cl -14%, CCn1ccc2cc(S(=O)(=O)N3CCCN(C(=O)Nc4ccc(C)cc4)CC3)ccc21 -22.9%, Cc1ccc(S(=O)(=O)c2nnn3c2nc(N2CCCCC2)c2sccc23)cc1 6.39%, CCN(CC)S(=O)(=O)c1ccc(NC(=O)[C@H](CCSC)N2Cc3ccccc3C2=O)cc1 -9.87%, Cc1c(C(=O)NN2CCCCC2)nn(-c2ccc(Cl)cc2Cl)c1-c1ccc(Cl)cc1 -17.4%, Cc1ccc(N2CCN(c3cc(C)nc4c(-c5ccc(Cl)cc5)c(C)nn34)CC2C)cc1 (stereo not given) -5.43%, NC(=O)Cn1c(=O)n(-c2ccc(F)c(Cl)c2)c(=O)c2sc3ccccc3c21 -11.1%, CCc1nc(SCc2cc(=O)c3cc(F)ccc3[nH]2)n[nH]1 0.269%, CC(=O)c1cccc(NC(=O)CN2C(=O)CN(C)C(=O)c3ccccc32)c1 -2.63%, Cc1cc(C)cc(N(C)S(=O)(=O)c2nnc(NC(=O)COc3ccc(Cl)cc3)s2)c1 -19.2%, Cc1cccc(Cn2c(-c3cccs3)nc3ccccc32)c1 -15.7%, CCOc1ccc(Cn2c(CNS(=O)(=O)c3cccs3)nc3cccnc32)cc1 -14.7%, CCOc1ccc(NC(=O)c2ccc3c(c2)c(C)c(C)n3Cc2ccc(F)cc2)cc1 -15.6%, Cc1cn2c(=O)c(S(=O)(=O)NC(C)c3ccccc3)c(C)nc2s1 (stereo not given) -15.1%, Cc1ccc(C)c2sc(N3CCN(C(=O)c4ccco4)CC3)nc12 -35.9%, Cc1ccc(NC(=O)Cn2ncc3c4ccccc4n(Cc4ccccc4)c3c2=O)cc1Cl -6.54%, Cc1ccc(Cn2c(CN3CCC(C(=O)NCC(C)c4ccccc4)CC3)cc3ccccc32)cc1 (stereo not given) -13.7%, C[C@](N)(Cc1ccc(O)c(O)c1)C(=O)O -20.1%, CCOC(=O)c1c(NC(=O)CSc2cn(CCNC(=O)c3c(F)cccc3F)c3ccccc23)sc2c1CCCC2 0.504%, Cc1ccc(-c2cc(C(=O)Nc3c(C(=O)c4ccc(C)c(F)c4)oc4ccccc34)no2)cc1 -13.1%, CCOCCc1nn2c(=O)cc(COC(=O)c3cccc(C)c3)nc2s1 -7.46%, Cc1ccc(C)c(N2CCN(C(=O)C3CCCN(S(=O)(=O)c4cccc5nonc45)C3)CC2)c1 (stereo not given) -17.1%, COC(=O)c1sccc1S(=O)(=O)N1CCN(c2ccc(C(C)=O)cc2)CC1 0.778%, COc1ccc(Cl)cc1NC(=O)Cn1nnc(C(=O)NCc2ccc3c(c2)OCO3)c1N -28.4%, Cn1c(=O)c2c(n3c4ccccc4nc13)NC(=O)CC2c1cccc(Cl)c1 (stereo not given) -0.933%, CCN(CC)CCOC(=O)c1ccc(NC(=O)c2cc3cccc(OC)c3oc2=O)cc1 -6.36%, Cc1ccc(Cl)cc1N1CCN(S(=O)(=O)c2ccc(-c3cnc(C4CC4)o3)cc2)CC1 -16.4%, COc1ccc(S(=O)(=O)NCCc2sc(-c3ccccc3)nc2C)cc1F 10.2%, CC(=O)c1ccc(NC(=O)c2cc(C3CC3)nc3c2c(C)nn3-c2ccc(C)cc2)cc1 -17.9%, CCCOc1ccc(-c2cccc(NS(=O)(=O)c3ccc(CC)cc3)c2)nn1 -4.95%, COc1ccc(NC(=O)CN2CCN(c3ccccc3F)CC2)c(OC)c1 -12.2%, COc1ccc(C(=O)N2CCN(C(=O)COc3ccc(C)cc3)CC2)cc1OC -20.1%, CC(C)c1ccc(NC(=O)CN2C(=O)CCc3cc(S(=O)(=O)N4CCOCC4)ccc32)cc1 -0.113%, CC(C)c1ccc(NC(=O)c2ccc(F)c(S(=O)(=O)N3CCN(c4ccccc4F)CC3)c2)cc1 -13.2%, O=C(Nc1ccccc1F)C(Cc1ccccc1)N1Cc2ccccc2C1=O (stereo not given) -9.43%, COc1ccc(S(=O)(=O)NCCc2sc(-c3cccc(F)c3)nc2C)cc1 -10.3%, COc1cc2c(C(=O)N3CCN(c4cc(Cl)ccc4C)CC3)cn(CC(C)C)c(=O)c2cc1OC -22.5%, O=C(Cn1cc(S(=O)(=O)N2CCN(c3ccccc3F)CC2)c2ccccc2c1=O)Nc1ccc(F)cc1Cl 0.141%, COc1cc(NS(=O)(=O)c2ccc(NC(=O)c3ccc(OC)c(Br)c3)cc2)nc(OC)n1 -5.64%, O=C(Nc1ccc(F)cc1F)N1CCc2c(sc3c2CCCC3)C1c1ccc(F)cc1 (stereo not given) -12%, Cc1ccc(-c2nn3c(=O)cc(CN4CCN(C(=O)c5ccc(C(C)(C)C)cc5)CC4)nc3s2)cc1 -11.2%, COCCn1c(=NC(=O)c2ccc3c(c2)OCCO3)sc2cc(NC(C)=O)ccc21 -16.7%, CCc1ccc(S(=O)(=O)n2ccnc2)cc1 5.75%, Cc1cc(C)c(NC(=O)CN(C)S(=O)(=O)c2ccc3c(c2)c(=O)n(C)c(=O)n3C)c(C)c1 18.4%, Cc1ccc(C(=O)/C=C/c2cn(CC(O)CN3CCCCCC3)c3ccccc23)cc1 (stereo not given) -8.51%, c1cnc(N2CCN(Cc3ccc4c(c3)OCO4)CC2)nc1 -13.8%, Cc1ccc(NC(=O)CSc2nccn2Cc2ccc3c(c2)OCO3)c(C)c1 -9.35%, CCC1=C(c2ccc(C)cc2)S(=O)(=O)N=C1N1CCC(C(=O)NCc2ccc(C)cc2)CC1 -46.8%, CCC(C)NC(=O)CCC(=O)NNc1nc2ccccc2c2nc(C)nn12 (stereo not given) -8.26%, CCCSCCCNC(=O)CN1C(=O)CCn2nc(-c3cn(C)c4ccccc34)cc21 -16.2%, COc1ccc(-c2nc3sc(CCNS(=O)(=O)c4c(C)cc(C)cc4C)c(C)n3n2)cc1 -6.76%, COc1cc(Cl)c(C)cc1Nc1nnc(-n2nc(C)cc2C)c2ccccc12 -10.6%, CCc1cccc(NC(=O)C(Cc2ccccc2)NS(=O)(=O)c2ccc3c(c2)c(=O)n(C)c(=O)n3C)c1 (stereo not given) -18.7%, COc1cccc(NC(=O)C2CCCN2S(=O)(=O)c2ccc3nc(-c4ccccc4)[nH]c3c2)c1 (stereo not given) -2.01%, COc1ccc(OCc2nc(C#N)c(NCc3ccccc3Cl)o2)cc1 2.56%, Cc1cc(SCC(=O)Nc2nsc(-c3ccc(C(C)(C)C)cc3)n2)nc2ccccc12 -16.6%, COc1cccc(N2CCN(C(=O)c3c4c(nc5ccccc35)C(=O)N(C3CCCCC3)C4)CC2)c1 -19.9%, CCOc1ccc(C(=O)Nc2ccc3c(c2)N(C(C)=O)CCC3)cc1OCC -11.6%, CCc1ccc(S(=O)(=O)N(C(C)=O)c2ccc3oc4c(c3c2)CCCC4)cc1 -26.7%, CCOc1ccc(C2c3c(oc4cc(C)c(C)cc4c3=O)C(=O)N2c2ccccn2)cc1 (stereo not given) -9.29%

Source: PubChem BioAssay AID1159614 (National Center for Advancing Translational Sciences (NCATS), 2016)
